“And” between values parts separate entries of the source, which are not always exact repeats. Identical values can stand only once. Screen size: about 420,000 compounds; about 64,000 (15%) were called active. Inconclusive means that the source gave no clear call. Such entries were picked first, then a sample of the others. Calls come from the whole dose curve; as a rule, active = well fitted inhibition curve with a large enough effect; inconclusive = small, poorly fitted or top-dose-only effect; inactive = flat fitted curve, though single readings scatter. Potencies of inconclusive entries are doubtful fits and often do not repeat.
Assay: qHTS for Inhibitors of human tyrosyl-DNA phosphodiesterase 1 (TDP1): qHTS in cells in absence of CPT; note: nearly all actives have a fitted effect of over 55% in size
Settings: DT40 Tdp1-/- hTDP1 cells, no CPT, ATP luminescence, 48 h; activity change, negative = growth inhibition: at 46.2 µM (top of the series) unless noted
Summary of the method: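 Luminescent ATP content (CellTiter-Glo) served as the growth readout. Knockout chicken DT40 cells expressing human TDP1 were exposed to compounds without camptothecin for a minimum 48 hr at 37 °C.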
% is set by controls: 0 for no effect and ±100 for the full control effect; potency is the fitted concentration of half-maximal effect; tags give direction and shape of the fitted curve.

SMILES | Potency | activity change, negative = growth inhibition
COC(=O)[C@@]1(Cc2ccc(F)cc2)[C@H]2c3cc(C(=O)N4CCCC4)n(CC4CC4)c3C[C@H]2CN1C(=O)c1ccccc1 | inconclusive: 18.4 µM [inhibitor, single point] | –
CCN(CC)CCNC(C(=O)OCCC(C)C)c1ccccc1 (stereo unspecified) | active: 5.31 µM | –
COc1ccc(C(=O)NNc2ccccc2)cc1OC | inconclusive: 29.1 µM [inhibitor, single point] | –
O=C(Nc1cccc(NC(=O)c2ccccc2Cl)c1)c1cccs1 | inconclusive: 16.4 µM [inhibitor, partial curve, poor fit] | –
COc1ccc(N2CCN(Cc3nnnn3C3CCCCC3)CC2)cc1 | inactive | –
CCN(CC(=O)O)S(=O)(=O)c1cc(Cl)ccc1Cl | inactive | –
Cc1oc(-c2ccccc2Cl)nc1CS(=O)(=O)CC(=O)NCCN1CCOCC1 | inactive | –
Cc1nonc1NC(=O)CSc1nc2c(C)cccc2cc1C#N | inconclusive: 25.9 µM [inhibitor, single point] | –
O=C1N(c2ccccc2C(F)(F)F)O[C@@]1(c1ccccc1)C1CCCCC1 | inconclusive: 29.1 µM [inhibitor, single point] | –
COc1ccccc1NC1=NC(CO)(CO)CS1 | inactive | –
Clc1ccc2[nH]c3c(NCCN4CCOCC4)ncnc3c2c1 | – | inconclusive: -34% [inhibitor]
Cc1ccc(-c2ccc(S(=O)(=O)Nc3cccnc3)cc2)cc1 | inconclusive: 13 µM [inhibitor, partial curve] | –
Cc1cc(N/C(=N/S(=O)(=O)c2cc(F)ccc2F)c2ccccc2)n(-c2ccccc2)n1 | inconclusive: 29.1 µM [inhibitor, single point] | –
CCn1c(=NC(=O)CCS(=O)(=O)c2ccccc2)sc2cccc(OC)c21 | active: 7.31 µM | –
CN1C(=O)C(CC(=O)O)S/C1=N\N=C\c1ccc(O)cc1O (stereo unspecified) | inactive | –
FC(F)(F)c1cnc(-c2cnc(-c3ccccn3)nc2)c(Cl)c1 | inconclusive: 25.9 µM [inhibitor, single point] | –
Cc1csc(-c2cnn(-c3ccccc3)c2NC(=O)c2cccc(C(F)(F)F)c2)n1 | inactive | –
Cc1ccc(/C(O)=C/c2nc3ccccc3oc2=O)cc1 | inconclusive: 29.1 µM [inhibitor, single point] | –
COc1ccc2c(c1)c1nnc(SC)nc1n2Cc1ccccc1 | active: 11.2 µM | –
Cc1ccc(-n2nnnc2SCC(=O)Nc2ccc(N3CCN(C)CC3)cc2)c(C)c1 | active: 18.4 µM | –
CCOc1ccc(CCNC(=O)CN2CCN(Cc3ccccc3F)C2=O)cc1OCC | inconclusive: 25.9 µM [inhibitor, single point] | –
Cc1ccc(C)c(OCC(=O)NC2CCCCCC2)c1 | inconclusive: 20.6 µM [inhibitor, single point] | –
COC(=O)c1[nH]c2ccc(F)cc2c1NC(=O)CCN1CCN(Cc2ccc3c(c2)OCO3)CC1 | active: 20.6 µM | –
Cc1ccc(CNc2nc3ccc(C)cc3n3nnnc23)cc1 | inactive | –
Cc1ccc(C(=O)NCCSCc2ccccc2)cc1[N+](=O)[O-] | inconclusive: 10.3 µM [inhibitor, partial curve] | –
C/C(=N/N1CCN(c2ccccn2)CC1)c1cccc([N+](=O)[O-])c1 | inconclusive: 32.6 µM [inhibitor, single point] | –

SMILES | Potency | activity change, negative = growth inhibition
O=C(NN=C1CCCCC1)c1ccccc1-n1cccc1 | inactive | –
C#CCN(C(=O)c1ccc(OC2CCN(C(=O)CCOC)CC2)cc1)C1CCCCC1 | inconclusive: 25.9 µM [inhibitor, single point] | –
CC(C)(C)N(Cc1nc(-c2ccccc2)no1)C(=O)c1ccc2c(c1)OCO2 | inconclusive: 11.6 µM [inhibitor, partial curve, poor fit] | –
Cc1ccc(C=C(C#N)C(=O)c2ccccc2)cc1 | inactive | –
O=C(Nc1ccc(Cc2ccncc2)cc1)c1ccc(S(=O)(=O)N2CCCC2)cc1 | active: 10.3 µM | –
CC(=O)Nc1ccc2c(c1)CCCC2 | inactive | –
C/C(=N\NC(=O)c1ccccc1)c1ccccc1F | inactive | –
Cc1csc2c(N3CCN(S(=O)(=O)c4ccc(Cl)cc4)CC3)ncnc12 | active: 23.1 µM | –
Cc1cccc(C(=O)OCC(=O)c2ccc3c(c2)OCO3)c1O | inconclusive: 16.4 µM [inhibitor, partial curve, poor fit] | –
O=C(CCS(=O)(=O)c1cccc2nonc12)Nc1ccc(Br)cc1 | inactive and inconclusive: 29.1 µM [inhibitor, single point] | –
Cc1ccccc1NC(=O)CSc1ccc(-c2cccs2)nn1 | active: 23.1 µM | –
COc1cc(/C=C(/C#N)C(=O)Nc2ccc(Cl)cc2)ccc1Oc1nc(Cl)ncc1F | inactive | –
O=C(c1n[nH]c2c1CCCC2)N1CCC(n2c(C3CCCO3)nc3ccccc32)CC1 (stereo unspecified) | inactive | –
O=c1[nH]c(SCc2ccc([N+](=O)[O-])cc2)nc2c1CCCC2 | inconclusive: 29.1 µM [inhibitor, single point] | –
CC(C)CCNC(=O)C1CCN(S(=O)(=O)c2ccc3nc4c(c(C(=O)O)c3c2)CCCCC4)CC1 | inactive | –
C/C(=N\NC(=O)C1CCCC1)c1ccc(Cl)cc1Cl | inactive | –
Cc1ccccc1-c1nc(P(=O)(c2ccccc2)c2ccccc2)c(N2CCOCC2)o1 | inconclusive: 29.1 µM [inhibitor, single point] | –
Cc1nc(C)c(Oc2cccc(C(F)(F)F)c2)c(=O)[nH]1 | inactive | –
CC(C)N(Cc1nccn1C)C(=O)c1ccc(OC2CCN(C(=O)C3CC3)CC2)cc1 | inconclusive: 16.4 µM [inhibitor, single point] | –
CC(=O)c1ccc(OCc2c(-c3ccccc3)nnn2CC(=O)NS(=O)(=O)c2ccc(C)cc2)cc1 | inactive | –
COC(=O)C1=C(C(C)=O)C(c2ccc(C)cc2)n2nnnc2N1 (stereo unspecified) | inactive | –
C#CCOc1nc(OCC#C)nc(OCC#C)n1 | inactive | –
COc1ccc(-n2c(C(C)(C)C)csc2=Nc2c(C)n(C)n(-c3ccccc3)c2=O)cc1 | inactive | –
Cc1ccc(/C=C/C(=O)c2ccc(N3CCOCC3)cc2)s1 | inconclusive: 20.6 µM [inhibitor, partial curve] | –
CCC1(C)Cc2ccccc2-c2nc3n(c(=O)c21)CCCCC3 (stereo unspecified) | inconclusive: 14.1 µM [inhibitor, partial curve] | –
Cc1ccc(NC(=O)c2ccc(OCc3c(C)noc3C)cc2)nc1 | inconclusive: 18.4 µM [inhibitor, single point] | –

SMILES | Potency | activity change, negative = growth inhibition
CCOC(=O)Cn1cnc2c(cnn2-c2ccc(Cl)cc2)c1=O | inconclusive: 29.1 µM [inhibitor, single point] | –
COc1ccc(NC(=O)c2cc(C3CC3)nc3c2c(C)nn3-c2ccccc2)cc1OC | inconclusive: 18.4 µM [inhibitor, single point] | –
O=C(CSc1nc2ccccc2s1)Nc1ccc(Cl)c(C(=O)O)c1 | inactive | –
C#CC[N+](CC)(CC)CC#Cc1cccc(Cl)c1 | inconclusive: 29.1 µM [inhibitor, single point] | –
CC(=O)NC1C(=O)Nc2c1cccc2C(F)(F)F (stereo unspecified) | inactive | –
CN(C)C(=O)c1ccc(-c2nc(N3CCOCC3)c3ccccc3n2)cc1 | inconclusive: 29.1 µM [inhibitor, single point] | –
CCOC(=O)c1ccccc1NC(=O)Nc1ccc(OC)c(OC)c1 | inactive | –
COc1ccc(NC(=O)Nc2nnc(N(CC(C)C)CC(C)C)s2)c(OC)c1 | active: 18.4 µM | –
COC(=O)c1[nH]c2ccc(Cl)cc2c1NC(=O)CCN1CCOCC1 | inactive | –
Cc1ccc2nc(C)cc(C(=O)N3CCCC(N4CCN(c5ccccc5C)CC4)C3)c2c1 (stereo unspecified) | inconclusive: 29.1 µM [inhibitor, single point] | –
CCCCN(C(=O)c1oc2ccc(OCC)cc2c1C)c1c(N)n(CCCC)c(=O)[nH]c1=O | inconclusive: 18.4 µM [inhibitor, partial curve] | –
CCc1cccc(CC)c1NC(=O)COC(=O)c1ccccc1-c1nc2ccccc2s1 | active: 16.4 µM | –
Cc1cc(C)c(S(=O)(=O)Nc2ccc3[nH]c(=O)[nH]c3c2)c(C)c1 | inconclusive: 14.6 µM [inhibitor, partial curve, poor fit] | –
O=C1N[C@@H](Cc2cnc[nH]2)C(=O)N2CCC[C@@H]12 | inactive | –
Cc1ccc(CNC(=O)Cn2cccc2C(=O)c2ccccc2C)cc1 | inconclusive: 25.9 µM [inhibitor, single point] | –
O=C(CSc1nccn1Cc1ccccc1)Nc1ccc2c(c1)OCCO2 | inactive | –
COc1cccc(NC(=O)CN(C)C(=O)CN2C(=O)NC3(CCCC3)C2=O)c1 | inconclusive: 20.6 µM [inhibitor, single point] | –
Cc1cc(OCC(=O)OCC(=O)NC2CCCCCC2)ccc1Cl | inconclusive: 23.1 µM [inhibitor, single point] | –
Cc1ccc(NC(=O)C2CCCN(S(=O)(=O)c3c(C)noc3/C=C/N(C)C)C2)cc1F (stereo unspecified) | active: 18.4 µM | –
O=C(C1CCC1)N1CCc2cc(S(=O)(=O)NC3CCCC3)ccc21 | – | inconclusive: -32.3% [inhibitor]
CCOC(=O)c1c(N)sc(C(O)(C(F)(F)F)C(F)(F)F)c1-c1ccccc1 | inconclusive: 29.1 µM [inhibitor, single point] | –
CC(C)c1ccc(NC2CCCN(C(=O)c3ccnn3C)C2)cc1 (stereo unspecified) | inconclusive: 29.1 µM [inhibitor, single point] | –
COc1ccc(C(CC(=O)O)NC(=O)COc2ccccc2OC)cc1OC (stereo unspecified) | inactive | –
O=C(CSc1ncnc2c1cnn2-c1ccccc1)NC1CCS(=O)(=O)C1 (stereo unspecified) | active: 8.2 µM | –

Source: PubChem BioAssay AID686978 (National Center for Advancing Translational Sciences (NCATS), 2013)
